Target: dopamine D2 receptor (Homo sapiens, UniProt P14416)
Assay: biochemical
Details: D2 Ki (nM), 0.4 nM [3H]spiperone, CHO-hD2L membranes

UniProt P14416, sequence (P14416 whole entry): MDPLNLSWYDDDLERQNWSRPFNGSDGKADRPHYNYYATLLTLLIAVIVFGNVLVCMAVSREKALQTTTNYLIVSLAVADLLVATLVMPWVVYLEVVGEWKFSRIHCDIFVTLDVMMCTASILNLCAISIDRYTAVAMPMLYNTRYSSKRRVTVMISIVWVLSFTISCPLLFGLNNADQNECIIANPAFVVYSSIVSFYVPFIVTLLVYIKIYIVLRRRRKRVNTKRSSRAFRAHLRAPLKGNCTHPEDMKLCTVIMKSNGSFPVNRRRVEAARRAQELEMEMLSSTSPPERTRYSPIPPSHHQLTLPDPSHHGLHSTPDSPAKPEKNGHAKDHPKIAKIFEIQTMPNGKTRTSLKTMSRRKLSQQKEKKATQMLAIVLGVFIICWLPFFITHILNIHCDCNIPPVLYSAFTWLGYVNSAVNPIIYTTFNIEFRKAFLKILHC

Compound	Ki (Table 2) [nM]	Ki (Table 1) [nM]
Cc1ccc2cccc(N3CCN(CCCCOc4ncc5ccc(=O)[nH]c5n4)CC3)c2n1 [Example G9′, 2-{4-[4-(2-Methyl-quinolin-8-yl)-piperazin-1-yl]-butoxy}-8H-pyrido[2,3-d]pyrimidin-7-one]	5.5	–
Cc1nc(OCCCCN2CCN(c3cccc4c3OCCO4)CC2)nc2[nH]c(=O)ccc12 [Example G10′, 2-{4-[4-(2,3-Dihydro-benzo[1,4]dioxin-5-yl)-piperazin-1-yl]-butoxy}-4-methyl-8H-pyrido[2,3-d]pyrimidin-7-one]	1	–
Cc1nc(OCCCCN2CCN(c3cccc4c3OCC4)CC2)nc2[nH]c(=O)ccc12 [Example G11′, 2-{4-[4-(2,3-Dihydro-benzofuran-7-yl)-piperazin-1-yl]-butoxy}-4-methyl-8H-pyrido[2,3-d]pyrimidin-7-one]	2	–
Cc1nc(OCCCCN2CCN(c3cccc4ccoc34)CC2)nc2[nH]c(=O)ccc12 [Example G12′, 2-[4-(4-Benzofuran-7-yl-piperazin-1-yl)-butoxy]-4-methyl-8H-pyrido[2,3-d]pyrimidin-7-one]	3	–
Cc1nc(OCCCCN2CCN(c3cccc4c3OCCC4)CC2)nc2[nH]c(=O)ccc12 [Example G13′, 2-[4-(4-Chroman-8-yl-piperazin-1-yl)-butoxy]-4-methyl-8H-pyrido[2,3-d]pyrimidin-7-one]	2.5	–
Cc1nc(OCCCCN2CCN(c3cccc4c3NC(=O)CC4)CC2)nc2[nH]c(=O)ccc12 [Example G14′, 4-Methyl-2-{4-[4-(2-oxo-1,2,3,4-tetrahydro-quinolin-8-yl)-piperazin-1-yl]-butoxy}-8H-pyrido[2,3-d]pyrimidin-7-one]	15	–
Cc1nc(OCCCCN2CCN(c3cccc4cccnc34)CC2)nc2[nH]c(=O)ccc12 [Example G15′, 4-Methyl-2-[4-(4-quinolin-8-yl-piperazin-1-yl)-butoxy]-8H-pyrido[2,3-d]pyrimidin-7-one]	3.4	–
O=C1CCc2cnc(OCCCCN3CCN(c4cccc5c4OCCC5)CC3)cc2N1 [Example H1′, 7-[4-(4-Chroman-8-yl-piperazin-1-yl)-butoxy]-3,4-dihydro-1H-[1,6]naphthyridin-2-one]	4.9	–
CC(C)Oc1ccccc1N1CCN(CCCCOc2ncc3ccc(=O)[nH]c3n2)CC1 [Example H2, 2-{4-[4-(2-Isopropoxy-phenyl)-piperazin-1-yl]-butoxy}-8H-pyrido[2,3-d]pyrimidin-7-one]	–	1
O=C1CCc2cnc(OCCCCN3CCN(c4cccc5c4OCC5)CC3)cc2N1 [Example H2′, 7-{4-[4-(2,3-Dihydro-benzofuran-7-yl)-piperazin-1-yl]-butoxy}-3,4-dihydro-1H-[1,6]naphthyridin-2-one]	6.9	–
O=c1ccc2cnc(OCCCCN3CCN(c4cccc5c4CCC5)CC3)nc2[nH]1 [Example H3, 2-[4-(4-Indan-4-yl-piperazin-1-yl)-butoxy]-8H-pyrido[2,3-d]pyrimidin-7-one]	–	1.8
O=C1CCc2cnc(OCCCCN3CCN(c4cccc5c4OC(F)(F)C(F)(F)O5)CC3)cc2N1 [Example H3′, 7-{4-[4-(2,2,3,3-Tetrafluoro-2,3-dihydro-benzo[1,4]dioxin-5-yl)-piperazin-1-yl]-butoxy}-3,4-dihydro-1H-[1,6]naphthyridin-2-one]	2	–
O=c1ccc2cnc(OCCCCN3CCN(c4cccc5ccccc45)CC3)nc2[nH]1 [Example H4, 2-[4-(4-Naphthalen-1-yl-piperazin-1-yl)-butoxy]-8H-pyrido[2,3-d]pyrimidin-7-one]	–	4.9
O=C1CCc2cnc(OCCCCN3CCN(c4cccc5c4OC(F)(F)O5)CC3)cc2N1 [Example H4′, 7-{4-[4-(2,2-Difluoro-benzo[1,3]dioxol-4-yl)-piperazin-1-yl]-butoxy}-3,4-dihydro-1H-[1,6]naphthyridin-2-one]	0.6	–
Cc1nc(OCCCCN2CCN(c3cccc4ccccc34)CC2)nc2[nH]c(=O)c(F)cc12 [Example H5, 6-Fluoro-4-methyl-2-[4-(4-naphthalen-1-yl-piperazin-1-yl)-butoxy]-8H-pyrido[2,3-d]pyrimidin-7-one]	–	3
O=C1CCc2cnc(OCCCCN3CCN(c4cccc5c4OCCO5)CC3)cc2N1 [Example H5′, 7-{4-[4-(2,3-Dihydro-benzo[1,4]dioxin-5-yl)-piperazin-1-yl]-butoxy}-3,4-dihydro-1H-[1,6]naphthyridin-2-one]	5.5	–
Cc1nc(OCCCCN2CCN(c3cccc(C(C)C)n3)CC2)nc2[nH]c(=O)ccc12 [Example H6, 2-{4-[4-(6-Isopropyl-pyridin-2-yl)-piperazin-1-yl]-butoxy}-4-methyl-8H-pyrido[2,3-d]pyrimidin-7-one]	–	1
O=c1ccc2cnc(OCCCCN3CCN(c4cccc5c4OCC5)CC3)cc2[nH]1 [Example H6′, 7-{4-[4-(2,3-Dihydro-benzofuran-7-yl)-piperazin-1-yl]-butoxy}-1H-[1,6]naphthyridin-2-one]	6.5	–
CCc1cccc(N2CCN(CCCCOc3nc(C)c4ccc(=O)[nH]c4n3)CC2)n1 [Example H7, 2-{4-[4-(6-Ethyl-pyridin-2-yl)-piperazin-1-yl]-butoxy}-4-methyl-8H-pyrido[2,3-d]pyrimidin-7-one]	–	8.8

Compound	Ki (Table 2) [nM]	Ki (Table 1) [nM]
O=c1ccc2cnc(OCCCCN3CCN(c4cccc5c4OCCO5)CC3)cc2[nH]1 [Example H7′, 7-{4-[4-(2,3-Dihydro-benzo[1,4]dioxin-5-yl)-piperazin-1-yl]-butoxy}-1H-[1,6]naphthyridin-2-one]	3.9	–
Cc1nc(OCCCCN2CCN(c3cccc4c3CCC4)CC2)nc2[nH]c(=O)ccc12 [Example H8, 2-[4-(4-Indan-4-yl-piperazin-1-yl)-butoxy]-4-methyl-8H-pyrido[2,3-d]pyrimidin-7-one]	–	1.3
O=c1ccc2cnc(OCCCCN3CCN(c4cccc5c4OCCC5)CC3)cc2[nH]1 [Example H8′, 7-[4-(4-Chroman-8-yl-piperazin-1-yl)-butoxy]-1H-[1,6]naphthyridin-2-one]	3.5	–
Cc1nc(OCCCCN2CCN(c3cccc4c3CCCC4)CC2)nc2[nH]c(=O)ccc12 [Example H9, 4-Methyl-2-{4-[4-(5,6,7,8-tetrahydro-naphthalen-1-yl)-piperazin-1-yl]-butoxy}-8H-pyrido[2,3-d]pyrimidin-7-one]	–	1
O=c1ccc2cnc(OCCCCN3CCN(c4cccc5c4OC(F)(F)O5)CC3)cc2[nH]1 [Example H9′, 7-{4-[4-(2,2-Difluoro-benzo[1,3]dioxol-4-yl)-piperazin-1-yl]-butoxy}-1H-[1,6]naphthyridin-2-one]	0.6	–
Cc1nc(OCCCCN2CCN(c3cccc4ccc(F)cc34)CC2)nc2[nH]c(=O)ccc12 [Example H10, 2-{4-[4-(7-Fluoro-naphthalen-1-yl)-piperazin-1-yl]-butoxy}-4-methyl-8H-pyrido[2,3-d]pyrimidin-7-one]	–	3
COc1ccc2cccc(N3CCN(CCCCOc4nc(C)c5ccc(=O)[nH]c5n4)CC3)c2c1 [Example H11, 2-{4-[4-(7-Methoxy-naphthalen-1-yl)-piperazin-1-yl]-butoxy}-4-methyl-8H-pyrido[2,3-d]pyrimidin-7-one]	–	0.4
Cc1nc(OCCCCN2CCN(c3cccc4ccccc34)CC2)nc2[nH]c(=O)ccc12 [Example H12, 4-Methyl-2-[4-(4-naphthalen-1-yl-piperazin-1-yl)-butoxy]-8H-pyrido[2,3-d]pyrimidin-7-one]	–	1
Cc1nc(OCCCCN2CCN(c3cccc4ccc(F)cc34)CC2)nc2c1ccc(=O)n2C [Example H13, 2-{4-[4-(7-Fluoro-naphthalen-1-yl)-piperazin-1-yl]-butoxy}-4,8-dimethyl-8H-pyrido[2,3-d]pyrimidin-7-one]	–	15.4
COc1ccc2cccc(N3CCN(CCCCOc4nc(C)c5ccc(=O)n(C)c5n4)CC3)c2c1 [Example H14, 2-{4-[4-(7-Methoxy-naphthalen-1-yl)-piperazin-1-yl]-butoxy}-4,8-dimethyl-8H-pyrido[2,3-d]pyrimidin-7-one]	–	9.3
O=C1CCc2cnc(CCCCCN3CCN(c4cccc(Cl)c4Cl)CC3)cc2N1 [Example I1, 7-{5-[4-(2,3-Dichloro-phenyl)-piperazin-1-yl]-pentyl}-3,4-dihydro-1H-[1,6]naphthyridin-2-one]	–	5
O=C1CCc2cnc(OCCCCN3CCN(c4cccc5c4CCCC5)CC3)cc2N1 [Example I2, 7-{4-[4-(5,6,7,8-Tetrahydro-naphthalen-1-yl)-piperazin-1-yl]-butoxy}-3,4-dihydro-1H-[1,6]naphthyridin-2-one]	–	9
O=C1CCc2cnc(OCCCCN3CCN(c4cccc5ccccc45)CC3)cc2N1 [Example I3, 7-[4-(4-Naphthalen-1-yl-piperazin-1-yl)-butoxy]-3,4-dihydro-1H-[1,6]naphthyridin-2-one]	–	14.5
O=C1CCc2cnc(OCCCCN3CCN(c4cccc5c4CCC5)CC3)cc2N1 [Example I5, 7-[4-(4-Indan-4-yl-piperazin-1-yl)-butoxy]-3,4-dihydro-1H-[1,6]naphthyridin-2-one]	–	13.9
O=C1CCc2cnc(OCCCCN3CCN(c4cccc5ccc(F)cc45)CC3)cc2N1 [Example I6, 7-{4-[4-(7-Fluoro-naphthalen-1-yl)-piperazin-1-yl]-butoxy}-3,4-dihydro-1H-[1,6]naphthyridin-2-one]	–	1
O=C1CCc2cnc(OCCCCN3CCN(c4cccc5ccccc45)CC3)c(Br)c2N1 [Example I7, 8-Bromo-7-[4-(4-naphthalen-1-yl-piperazin-1-yl)-butoxy]-3,4-dihydro-1H-[1,6]naphthyridin-2-one]	–	7.4
O=C1CCc2cnc(OCCCCN3CCN(c4cccc(Cl)c4Cl)CC3)c(Br)c2N1 [Example I8, 8-Bromo-7-{4-[4-(2,3-dichloro-phenyl)-piperazin-1-yl]-butoxy}-3,4-dihydro-1H-[1,6]naphthyridin-2-one]	–	5.9
O=C1CCc2cnc(OCCCCN3CCN(c4cccc(Cl)c4Cl)CC3)c(Cl)c2N1 [Example I9, 8-Chloro-7-{4-[4-(2,3-dichloro-phenyl)-piperazin-1-yl]-butoxy}-3,4-dihydro-1H-[1,6]naphthyridin-2-one]	–	4.5
O=C1CCc2cnc(OCCCCN3CCN(c4cccc5ccccc45)CC3)c(Cl)c2N1 [Example I10, 8-Chloro-7-[4-(4-naphthalen-1-yl-piperazin-1-yl)-butoxy]-3,4-dihydro-1H-[1,6]naphthyridin-2-one]	–	9.5

Reference: patent US7160888B2, “[1,8]naphthyridin-2-ones and related compounds for the treatment of schizophrenia” (Warner Lambert Company LLC, priority 2003, dated 2007)
